From PubChem BioAssay AID360 (National Center for Advancing Translational Sciences (NCATS), 2006)
Out of some 48,000 compounds screened, about 550 (1.1%) were called active. Not shown: some 4% with an inconclusive outcome. Rule as the data show it: active = potency below about 15 µM; inconclusive = mostly about 16 µM to 33 µM; inactive = weaker than that. Some of the results follow.

Biological target: Lysosomal acid glucosylceramidase (Homo sapiens) (UniProt P04062)
Assay: Glucocerebrosidase;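 also: the screen sought inhibitors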
Conditions: purified enzyme, resorufin glucoside fluorescence (screen aimed at inhibitors), 20 min
Method in brief: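 Compounds titrated against 0.2 nM normal enzyme, 30 uM resorufin beta-D-glucopyranoside substrate, citrate/phosphate buffer with taurocholate and tween-20, pH 5.9. Reaction ran 20 min at room temperature; fluorescence (Ex 548/Em 600) gave AC50.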
Potency is read from the fitted curve at half-maximal effect.

Sequence of UniProt P04062 (P04062 whole entry, looked up): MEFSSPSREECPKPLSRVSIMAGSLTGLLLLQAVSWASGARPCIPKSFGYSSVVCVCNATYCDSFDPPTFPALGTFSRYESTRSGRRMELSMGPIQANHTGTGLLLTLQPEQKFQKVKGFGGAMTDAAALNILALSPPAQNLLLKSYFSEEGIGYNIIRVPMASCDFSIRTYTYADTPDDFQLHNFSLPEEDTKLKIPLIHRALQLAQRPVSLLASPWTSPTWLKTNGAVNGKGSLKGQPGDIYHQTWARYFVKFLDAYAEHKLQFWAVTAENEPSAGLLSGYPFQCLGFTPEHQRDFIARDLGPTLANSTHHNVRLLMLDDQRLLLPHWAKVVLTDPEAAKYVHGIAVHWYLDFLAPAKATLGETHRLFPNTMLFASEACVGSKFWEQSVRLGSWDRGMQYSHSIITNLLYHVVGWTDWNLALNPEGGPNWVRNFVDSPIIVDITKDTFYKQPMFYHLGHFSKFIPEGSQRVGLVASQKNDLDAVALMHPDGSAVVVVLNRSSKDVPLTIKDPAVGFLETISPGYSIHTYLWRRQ

Row | Structure (SMILES) | Potency
1 | CCN1CCN(CCNC(=O)c2cn(Cc3ccccc3F)nn2)CC1 | inactive: > 76.9 µM
2 | CC(=O)Nc1cccc(Oc2ccc(-c3noc(C)n3)cc2)c1 | inactive: > 76.9 µM
3 | O=C1CCCC2=C1C(c1cccs1)n1nc(SCc3ccccc3F)nc1N2 (stereo not drawn) | inactive: > 76.9 µM
4 | Cc1cc(NC(=O)COc2ccc(Cl)cc2Cl)n(CCC#N)n1 | inactive: > 76.9 µM
5 | CC(C)(C)c1nnc2sc(SCCN3C(=O)c4ccccc4C3=O)nn2c1=O | inactive: > 76.9 µM
6 | CCCc1nc(SCC(=O)N2CCCC2)c2ccccc2n1 | inactive: > 76.9 µM
7 | O=C(CCn1nnc(-c2cccs2)n1)NCc1ccccc1Cl | inactive: > 76.9 µM
8 | COc1ccc(-c2nn(C)c(=O)c3ccccc23)cc1CNC(=O)CN1CCOCC1 | inactive: > 76.9 µM
9 | c1cncc(-c2nnc(-c3ccco3)o2)c1 | inactive: > 76.9 µM
10 | CCCc1nnc2n1N=C(c1ccc(OC)c(OC)c1)CS2 | inactive: > 76.9 µM
11 | CCCC(c1nnnn1Cc1ccccc1)N1CCC(C(N)=O)CC1 (stereo not drawn) | inactive: > 76.9 µM
12 | N#Cc1nc(Cc2ccccc2)oc1NCCCn1ccnc1 | inactive
13 | CC(C)CCn1c(Sc2nc3ccccc3s2)nc2c1c(=O)[nH]c(=O)n2C | inactive: > 76.9 µM
14 | Cc1cccc(-c2noc(CN(C(=O)c3ccc(Br)o3)C(C)C)n2)c1 | inactive: > 76.9 µM
15 | CCOc1cc(C2C3=C(CCCC3=O)NC3=C2C(=O)CCC3)ccc1OCCO | inactive: > 76.9 µM
16 | O=C(Cn1nc(C(=O)O)c2ccccc2c1=O)NCCC1=CCCCC1 | inactive: > 76.9 µM
17 | CC(=O)c1ccc(NC(=O)C(C)Sc2nnnn2C)cc1 (stereo not drawn) | inactive: > 76.9 µM
18 | Nc1nc2n(n1)C(c1ccco1)CC(c1ccc(Cl)c(Cl)c1)N2 (stereo not drawn) | inactive: > 76.9 µM
19 | Cc1nc(N2CCN(C(c3ccccc3)c3ccccc3)CC2)nc2c1C(=O)CCC2 | inactive: > 76.9 µM
20 | Cc1ccc(C)c(N2CCN(C(=O)C3CCN(S(=O)(=O)c4c(C)noc4C)CC3)CC2)c1 | inactive: > 76.9 µM
21 | CC1CCCC(C)N1C(=O)CN1CCN(c2nc(-c3ccc(F)cc3)cs2)CC1 (stereo not drawn) | inactive: > 76.9 µM
22 | Nc1n[nH]c2c1C1(CCCCC1)Cc1ccccc1-2 | inactive: > 76.9 µM
23 | C=CCn1c(SCc2ccc3nonc3c2)nnc1-c1cccs1 | inactive: > 76.9 µM
24 | NC(=O)c1oc2ccccc2c1NC(=O)CN1CCCCC1 | inactive: > 76.9 µM

Row | Structure (SMILES) | Potency
25 | CCOC(=O)c1oc2ccccc2c1NC(=O)c1ccc(S(=O)(=O)N2CCCC2)cc1 | inactive: > 76.9 µM
26 | CCCCOc1ccc(C(=O)N2CCC(C)CC2)cc1 | inactive: > 76.9 µM
27 | O=C(OCc1c(Cl)cccc1Cl)c1cnccn1 | inactive: > 76.9 µM
28 | COc1ccccc1Nc1nc(N)nc(CN2CCc3ccccc3C2)n1 | inactive
29 | CCCCN(C)CCn1c(=S)[nH]c2ccc(N3CCOCC3)cc2c1=O | inactive: > 76.9 µM
30 | O=C(NCc1ccco1)c1cccc2c1C(=O)N(C1CCCCC1)C2 | inactive: > 76.9 µM
31 | COCc1nnc(NC(=O)c2sc3ccccc3c2Cl)s1 | inactive: > 76.9 µM
32 | O=C(Nc1ccc2c(c1)OCO2)Nc1ccc(Br)cn1 | inactive: > 76.9 µM
33 | NC(=O)CSc1nc2ccccc2n1Cc1ccccc1F | inactive: > 76.9 µM
34 | C=CCN=C(NC#N)SCC(=O)NC(C)(C)C | inactive: > 76.9 µM
35 | Cn1nnc(-c2ccc(OCc3ccccc3F)cc2)n1 | inactive: > 76.9 µM
36 | Cc1cc(C(=O)Nc2sc3c(c2C#N)CCC(C)C3)no1 (stereo not drawn) | inactive: > 76.9 µM
37 | CC(=O)N1C(=O)N(C)C2C1N(C(C)=O)C(=O)N2C (stereo not drawn) | inactive: > 76.9 µM
38 | O=C(C1CCCN1S(=O)(=O)c1ccc(Cl)cc1)N1CCOCC1 (stereo not drawn) | inactive: > 76.9 µM
39 | COc1nc(OC)nc(N2CCC(C(=O)NCc3ccco3)CC2)n1 | inactive: > 76.9 µM
40 | CCc1nnc(NC(=O)c2ccncc2)s1 | inactive: > 76.9 µM
41 | O=C(CC(NS(=O)(=O)c1ccc(Cl)cc1)c1ccco1)NC1CCCC1 (stereo not drawn) | inactive: > 76.9 µM
42 | O=C(Nc1ccccc1C(F)(F)F)N1CCC(n2c(=O)[nH]c3ccccc32)CC1 | inactive: > 76.9 µM
43 | COc1cccc2sc(N(C)c3ccccc3)nc12 | inactive: > 76.9 µM
44 | O=C(Nc1cccc(Cl)c1)N(Cc1nc2ccccc2c(=O)[nH]1)C1CCCC1 | inactive: > 76.9 µM
45 | COc1ccc(S(=O)(=O)NC(C)C(=O)Nc2cccc(C(C)=O)c2)cc1 (stereo not drawn) | inactive: > 76.9 µM
46 | CC(=O)c1cccc(NC(=O)c2cc(-n3cnnc3)ccc2Cl)c1 | inactive: > 76.9 µM
47 | CCNS(=O)(=O)c1c(C)cc(N2CCCC2=O)cc1C | inactive: > 76.9 µM
48 | Cc1cc2cc(CN(C(=O)C3CC3)C3CCCC3)c3nnnn3c2cc1C | inactive: > 76.9 µM

Row | Structure (SMILES) | Potency
49 | Cc1cc(SCC(=O)NC(=O)NCc2ccco2)nc2c(C)cccc12 | inactive: > 76.9 µM
50 | c1ccc(-c2ccc(OCCOCCn3cncn3)cc2)cc1 | inactive: > 76.9 µM
51 | COc1ccc(-c2nn3c(-c4ccccc4)nnc3s2)cc1 | inactive: > 76.9 µM
52 | Cc1noc(C)c1C(=O)OCC(=O)NCCC1=CCCCC1 | inactive: > 76.9 µM
53 | O=C1c2ccccc2CN1CCNS(=O)(=O)c1ccc(Cl)cc1 | inactive: > 76.9 µM
54 | COC(=O)c1cc(OC)c(OC)cc1NC(=O)c1oc2ccccc2c1C | inactive: > 76.9 µM
55 | COc1ccc(NC(C)=O)cc1NC(=O)CSc1nnc(-c2ccncc2)n1C | inactive: > 76.9 µM
56 | CCCC(=O)N1CCN(c2ccc(NC(=O)c3cc4ccccc4o3)cc2Cl)CC1 | active: 4.22 µM
57 | c1ccc2c(c1)CCN(c1nc3cc4c(cc3s1)OCCO4)C2 | inactive: > 76.9 µM
58 | CCOc1ccccc1NC(=O)Nc1cc(OC)ccc1OC | inactive: > 76.9 µM
59 | COc1ccc(S(=O)(=O)N(CC(N)=O)C2CCCCC2)cc1Cl | inactive: > 76.9 µM
60 | COC(=O)n1ccc(C(=O)Nc2ccccc2F)n1 | inactive: > 76.9 µM
61 | O=C(CSc1ncc(-c2ccc(F)cc2)[nH]1)N1CCCCC1 | inactive: > 76.9 µM
62 | CCOC(=O)CC1=C(C#N)C(c2cccnc2)C(C(=O)OCC)=C(N)O1 (stereo not drawn) | inactive: > 76.9 µM
63 | O=C(NCc1ccc(F)cc1)C1CC(=O)N(CCc2ccccc2)C1 (stereo not drawn) | inactive: > 76.9 µM
64 | C/C(=C\c1ccco1)C1Nc2cccc3cccc(c23)N1 | inactive: > 76.9 µM
65 | COc1ccc(S(=O)(=O)N(C)CC(=O)N2CCN(C)CC2)cc1C | inactive: > 76.9 µM
66 | COc1ccc(NC(=O)Nc2ccc(C)cc2OC(F)F)cc1OC | inactive: > 76.9 µM
67 | N#Cc1c(NC(=O)CSC2=NCCS2)sc2c1CCCC2 | inactive: > 76.9 µM
68 | CCOc1ccc(N2CC(C(=O)NC(C)C)CC2=O)cc1 (stereo not drawn) | inactive: > 76.9 µM
69 | Cc1ccc(-n2ncc3c(=O)n(CC(=O)NC4CCCCC4)cnc32)cc1 | inactive: > 76.9 µM
70 | O=C1N2CCSC2=NC1(Nc1ccccn1)C(F)(F)F (stereo not drawn) | inactive: > 76.9 µM
71 | O=C(O)C1CCCN1c1ncnc2ccccc12 (stereo not drawn) | inactive: > 76.9 µM
72 | O=C(COc1ccccc1O)N1CCN(C(=O)c2ccco2)CC1 | inactive: > 76.9 µM

Row | Structure (SMILES) | Potency
73 | Cc1cc(OCCSc2nnc(-c3cccs3)n2C)ccc1Cl | inactive: > 76.9 µM
74 | O=C(NCCOc1ccccc1)c1n[nH]c(=O)c2ccccc12 | inactive: > 76.9 µM
75 | CC(CN1CCCCC1)OC(=O)c1ccc2c(c1)OCO2 (stereo not drawn) | inactive: > 76.9 µM
76 | COC(=O)c1ccc(OC(=O)C2CC(=O)N(c3ccc(C)cc3C)C2)cc1 (stereo not drawn) | inactive: > 76.9 µM
77 | O=C(O)c1cc2nc(-c3ccccc3)cc(C(F)(F)F)n2n1 | inactive: > 76.9 µM
78 | CCOC(=O)Cc1c(C)nc2c(-c3ccccc3)c[nH]n2c1=O | inactive
79 | CCCOc1ccc(C2C(C(=O)c3ccc(C)o3)=C(O)C(=O)N2CCN2CCOCC2)cc1OC (stereo not drawn) | inactive: > 76.9 µM
80 | CCOc1ccc(CN2C(=O)c3ccccc3C2C(=O)NCc2cccnc2)cc1 (stereo not drawn) | inactive: > 76.9 µM
81 | O=C(CS(=O)(=O)c1cn(Cc2ccc(F)cc2)c2ccccc12)N1CCCCC1 | inactive: > 76.9 µM
82 | O=C(CN1C(=O)c2cccc3cccc1c23)Nc1ccc(S(=O)(=O)N2CCOCC2)cc1 | inactive: > 76.9 µM
83 | CC1(C)Cc2c(C#N)c(OCC(=O)c3ccc(Cl)cc3)nc(-c3ccco3)c2CO1 | inactive: > 76.9 µM
84 | O=C(CCN1CCCCC1)NCC1OCCc2ccccc21 (stereo not drawn) | inactive: > 76.9 µM
85 | O=C(CC1(O)C(=O)N(Cc2ccccc2Cl)c2ccccc21)c1ccco1 (stereo not drawn) | inactive: > 76.9 µM
86 | O=C(NCN1CCc2ccccc2C1)c1cnccn1 | inactive: > 76.9 µM
87 | O=C(N1CCOCC1)N(Cc1ccccc1)c1ccccn1 | inactive: > 76.9 µM
88 | COC(=O)C1CCN(c2cc(=O)n(-c3ccccc3Cl)c(=O)[nH]2)CC1 | inactive: > 76.9 µM
89 | COc1ccc(CCN(Cc2cc3cccc(C)c3[nH]c2=O)C(=O)N2CCCC2)cc1OC | inactive: > 76.9 µM
90 | Cc1ccc(SCCC(=O)N2CCC(C(N)=O)CC2)cc1 | inactive: > 76.9 µM
91 | CCC(=O)Nc1cccc(NC(=O)CSc2nnnn2Cc2ccccc2)c1 | inactive
92 | COc1ccc(C2C(C#N)=C(/N=C/N3CCN(C)CC3)OC3=C2C(=O)CC(C)(C)C3)cc1OC (stereo not drawn) | inactive: > 76.9 µM
93 | O=C(C1CCC1)N1CCc2cc(S(=O)(=O)Nc3ccc4c(c3)OCO4)ccc21 | inactive: > 76.9 µM
